# Assay results as given in publication PMC4336329 (PLoS ONE, 2015).
# The whole screen tested about 310,000 compounds, of which about 14,000 (4.5%) showed an effect of 50% or more. Effects have a minus sign here. The list shows a part of the results.
# Biological target: human ether-à-go-go-related gene (hERG) potassium channel (human, UniProt Q12809)
# Assay: primary screen, population patch clamp on CHO cells stably expressing hERG
# 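Note: peak tail current of the secondary pulse compared with the same well before compound.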
# human ether-à-go-go-related gene (hERG) potassium channel, sequence (Q12809 whole entry, looked up): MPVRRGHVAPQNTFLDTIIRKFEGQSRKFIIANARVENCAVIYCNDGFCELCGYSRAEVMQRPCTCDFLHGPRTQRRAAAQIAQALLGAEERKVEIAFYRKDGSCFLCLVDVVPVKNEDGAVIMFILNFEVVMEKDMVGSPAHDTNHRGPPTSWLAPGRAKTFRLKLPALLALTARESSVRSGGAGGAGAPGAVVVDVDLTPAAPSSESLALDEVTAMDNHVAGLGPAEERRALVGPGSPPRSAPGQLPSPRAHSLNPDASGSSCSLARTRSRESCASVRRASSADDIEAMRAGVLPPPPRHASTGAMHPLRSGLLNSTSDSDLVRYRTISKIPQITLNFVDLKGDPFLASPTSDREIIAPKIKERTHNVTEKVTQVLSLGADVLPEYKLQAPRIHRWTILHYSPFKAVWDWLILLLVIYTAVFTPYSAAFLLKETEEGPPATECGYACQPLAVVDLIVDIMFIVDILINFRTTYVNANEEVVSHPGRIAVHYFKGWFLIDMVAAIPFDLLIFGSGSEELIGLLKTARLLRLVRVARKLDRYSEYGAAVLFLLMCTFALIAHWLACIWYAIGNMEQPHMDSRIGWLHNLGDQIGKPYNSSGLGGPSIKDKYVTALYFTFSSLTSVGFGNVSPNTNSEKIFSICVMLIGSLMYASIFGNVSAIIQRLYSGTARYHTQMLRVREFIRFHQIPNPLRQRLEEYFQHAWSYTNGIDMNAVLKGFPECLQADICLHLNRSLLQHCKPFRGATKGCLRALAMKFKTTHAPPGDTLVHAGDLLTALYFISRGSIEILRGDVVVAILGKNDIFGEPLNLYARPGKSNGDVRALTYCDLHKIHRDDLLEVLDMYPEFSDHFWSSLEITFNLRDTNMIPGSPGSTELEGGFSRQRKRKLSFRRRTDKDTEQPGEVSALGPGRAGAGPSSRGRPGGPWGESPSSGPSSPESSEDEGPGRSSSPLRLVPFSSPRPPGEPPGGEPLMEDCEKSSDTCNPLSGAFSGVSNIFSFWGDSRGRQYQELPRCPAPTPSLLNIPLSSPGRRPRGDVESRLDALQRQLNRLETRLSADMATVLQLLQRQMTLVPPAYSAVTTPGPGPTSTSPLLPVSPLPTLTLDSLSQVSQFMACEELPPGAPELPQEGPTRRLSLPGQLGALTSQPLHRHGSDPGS
row,Compound,"hERG current change (%, negative = inhibition) at 10uM"
1,COCC(=O)N1CCC(Oc2ccc(C(=O)N(C)Cc3nccs3)cc2)CC1,3.28%
2,COc1ccc(N2C(=O)CSC(c3ccccc3)C2=O)cc1 (centres unmarked),21.3%
3,Cc1ccc(NC(=O)C(C)c2cccc(C(=O)c3ccccc3)c2)cc1O (centres unmarked),-26.8%
4,Cc1ccc(/C=N/NC(=O)CN2CCN(Cc3ccccc3Cl)CC2)o1,-23.5%
5,O=C(NCCN1CCN(C(=O)c2ccc(F)cc2)CC1)C(=O)NCc1ccccc1,-73.9%
6,CC(=O)Nc1ccc(S(=O)(=O)N2CCN(C(=O)c3ncoc3-c3ccc(C)cc3)CC2)cc1,6.74%
7,OCC1(Cc2ccccc2C(F)(F)F)CCN(Cc2ccccc2)CC1,-41.3%
8,CCOC(=O)C1=C(N)c2ccccc2CC1C(C)C (centres unmarked),1.14%
9,Cl.Oc1ccc(Cl)cc1CNCc1ccc(Cl)nc1,-6.22%
10,Cc1cc(C)n2nc(C(=O)OC(C)C(=O)c3cc(C)c(C)cc3C)nc2n1 (centres unmarked),-40%
11,O=C(Nc1ccncc1)Nc1ccccc1Cl,-1.45%
12,CC(=O)NC(=O)c1ccc(-c2ccc(Cl)cc2)o1,11.7%
13,O=C1C=C(c2cc(C(F)(F)F)cc(C(F)(F)F)c2)C[C@@H](c2ccc(Cl)cc2)C1,22.3%
14,CSc1nc2nccc(/C=C\c3ccccc3)n2n1,-33.6%
15,CCOc1ccc(C(=O)Nc2nnc(SCC(=O)NCC3CCCO3)s2)cc1OCC (centres unmarked),9.52%
16,Cc1ccc(C)c(-n2c(SCC(=O)Nc3nnc(C)s3)nnc2-c2ccoc2C)c1,5.96%
17,CCOC(=O)c1sc(=S)n(-c2cc(OC)ccc2OC)c1N,11.6%
18,O=C(Cn1cnc2c(cnn2-c2ccccc2)c1=O)Nc1cc(S(=O)(=O)N2CCOCC2)ccc1Cl,-32.2%
19,CC1CCCC(NC(=O)CCC(=O)c2ccc(F)cc2)C1C (centres unmarked),8.27%

row,Compound,"hERG current change (%, negative = inhibition) at 10uM"
1,CCCCc1nc2cc(C(=O)NCc3ccccn3)ccc2o1,2.61%
2,CN(C)c1cc(-c2ccc(Cl)cc2Cl)oc(=O)c1Cl,0.166%
3,CSc1cc(C)nc(NC(C)=O)n1,10.4%
4,O=C(Cc1ccc(Cl)cc1)NNC(=O)C1CC=CCC1C(=O)O (centres unmarked),20.9%
5,CCOC(=O)N1CCN(S(=O)(=O)c2cc([N+](=O)[O-])ccc2C)CC1,-14.4%
6,Cc1c(NC(=O)CSc2ccc3ccccc3n2)c(=O)n(-c2ccccc2)n1C,-21.1%
7,O=C(Sc1ccc(Cl)cc1)c1cccc(Cn2cc(C(F)(F)F)ccc2=O)c1,18.6%
8,Cc1cccc(NC(=O)C2CC3CCC2C3)c1C (centres unmarked),15.1%
9,Cc1ccc(NC(=O)c2ccc(=O)[nH]n2)cc1S(=O)(=O)Nc1ccccc1Cl,8.7%
10,O=C1COc2ccc(C(=O)CSc3nnc(Cc4ccccc4)o3)cc2N1,-3.32%
11,Cc1nn(C)c(C)c1/C=N/NC(=O)CCn1nc(C)c([N+](=O)[O-])c1C,5.43%
12,Fc1ccccc1C1CCN(Cc2nc(COc3ccccc3)no2)C1 (centres unmarked),-9.99%
13,CCOC(=O)c1sc(=NC(=O)COc2ccccc2)n(C)c1C,4.66%
14,O=C(O)CCCn1cc(NC(=O)c2sc3ccccc3c2Cl)cn1,24.5%
15,O=C(Nc1ccc(C2=NCCN2)cc1)c1ccc(C(=O)Nc2ccc(C3=NCCN3)cc2)c(Cl)c1,10.4%
16,CC(NC(=O)C1CC=CCC1C(=O)O)C1CC2CCC1C2 (centres unmarked),15.5%
17,COc1ccc(OCCN2CCN(C(=O)c3ccc(OC(F)F)c(OC)c3)CC2)cc1,-72.6%
18,Cc1ccc(C)c(Nc2cc(C)nc3ccccc23)c1,-49.5%
19,CCOc1ccc(NC(=O)Cn2ncc3ccccc32)cc1,11.6%

row,Compound,"hERG current change (%, negative = inhibition) at 10uM"
1,CC(C#N)Sc1nnc(Nc2ccccc2)s1 (centres unmarked),7.3%
2,COC(=O)c1ccc(/C=N\NC(=O)c2c(C)nc3ccc(Cl)cn23)cc1,24.7%
3,COCCn1c(SCC(=O)Nc2cccnc2Cl)nc2cc(Cl)ccc2c1=O,-29.6%
4,COCCCN(Cc1ccco1)C(=O)Cn1ncc2c([nH]c3ccccc32)c1=O,-24.1%
5,OCCC1CN(Cc2ccc3ncccc3c2)CCN1Cc1ccccc1 (centres unmarked),-14.8%
6,Cc1ccc(-n2ncc3c(SCc4ccccc4)ncnc32)cc1,15.2%
7,COc1ccc(Nc2ccc(S(=O)(=O)N3CCCCC3)cc2[N+](=O)[O-])cc1,2.22%
8,CCOC(=O)c1cnc2c(OC)cccc2c1Nc1ccc2c(c1)OCCO2,-56.3%
9,NC(=O)c1cc2n(n1)C(C(F)(F)F)CC(c1ccco1)N2 (centres unmarked),-7.54%
10,COc1ccc(C(=O)N/N=C/c2cc(Br)ccc2O)cc1OC,8.67%
11,Cc1cccc(N2CCN(C(=O)c3cccc(N4C(=O)C5C6C=CC(C6)C5C4=O)c3)CC2)c1C (centres unmarked),4.35%
12,O=C(O)Cn1nc2ccccc2n1,27.9%
13,CC1=NN(C(N)=S)C(=O)C1N=Nc1c(C)cc(C)cc1C (centres unmarked),20.8%
14,O=C(NC1CCCCC1)C(c1ccc(F)cc1)N(Cc1cccs1)C(=O)CN1C(=O)c2ccccc2S1(=O)=O (centres unmarked),10.9%
15,CC(NC(=O)COC(=O)/C=C/c1ccc([N+](=O)[O-])cc1)c1ccccc1 (centres unmarked),4.05%
16,Cc1oc2ccc(OC(=O)N(C)C)cc2c1C(=O)OC(C)C,-11.8%
17,CC(C)CN(CC(C)C)CC(O)COc1ccccc1Br.Cl (centres unmarked),-28.4%
18,O=C1CSc2ccc(S(=O)(=O)NCc3ccc(F)cc3)cc2N1,-10.8%
